# Counter-ions that a name gives are not always drawn. The list shows a part of the results.
# Test system: Schistosoma mansoni schistosomula
# Experiment: phenotypic hit in primary schistosomula screen (any phenotype vs DMSO control) (binary (1 = hit, 0 = no phenotype)); higher = active (phenotype induced)
# Conditions: 1 µM; time (d): 7
row,SMILES,phenotypic hit
1,C[n+]1cccc(C(=O)[O-])c1 [trigonelline],inactive: 0
2,"O=C(/C=C/c1ccccc1)c1c(O)cc(O)cc1O [2',4',6'-trihydroxychalcone]",inactive: 0
3,O=C(O)c1cc(O)c2c(c1)[C@H]([C@H]1c3cc(C(=O)O)cc(O)c3C(=O)c3c(O[C@@H]4O[C@H](CO)[C@@H](O)[C@H](O)[C@H]4O)cccc31)c1cccc(O[C@@H]3O[C@H](CO)[C@@H](O)[C@H](O)[C@H]3O)c1C2=O [sennoside a],inactive: 0
4,C[C@@H]1C(=O)O[C@H]2C[C@@]34[C@H]5C[C@@H](C(C)(C)C)[C@]36[C@@H](OC(=O)[C@@H]6O)O[C@@]4(C(=O)O5)[C@]21O [ginkgolide a],inactive: 0
5,C=C1CCC2C(CC2(C)C)C(=C)CC/C1=N/O (stereo not given) [5-hydroxyiminoisocaryophyllene],inactive: 0
6,"CC1=CC(=O)CC(C)(C)C1(O)/C=C/C(C)=C\C(=O)O (mixture of isomers) [abscisic acid (cis,trans; +/-)]",inactive: 0
7,Nc1ncnc2c1ncn2[C@@H]1O[C@H](COP(=O)(O)O)[C@@H](O)[C@H]1O [adenosine phosphate],inactive: 0
8,CCC(=O)O[C@H]1[C@H](O[C@@H]2[C@@H](C)[C@H](O[C@H]3C[C@@](C)(OC)[C@@H](O)[C@H](C)O3)[C@@H](C)C(=O)O[C@H](CC)[C@@](C)(O)[C@H](O)[C@@H](C)C(=O)[C@H](C)C[C@@]2(C)O)O[C@H](C)C[C@@H]1N(C)C [erythromycin estolate],inactive: 0
9,Oc1cc(O)c2c(c1)O[C@H](c1ccc(O)c(O)c1)[C@@H](O)C2 [cianidanol],inactive: 0
10,CC(N/C(=N\C#N)Nc1ccncc1)C(C)(C)C (stereo not given) [Pinacidil],inactive: 0
11,CCN(CC)CCOC(=O)C1(C2CCCCC2)CCCCC1 [dicyclomine hydrochloride],inactive: 0
12,"O=c1cc(-c2ccccc2)oc2c(O)c(O)ccc12 [7,8-dihydroxyflavone]",inactive: 0
13,COc1ccc([C@@H]2CC(=O)c3c(O)cc(O)cc3O2)cc1O [hesperetin],inactive: 0
14,CC1=C(/C=C/C(C)=C/C=C/C(C)=C/C=C/C=C(C)/C=C/C=C(C)/C=C/[C@@]23O[C@]2(C)C[C@@H](O)CC3(C)C)C(C)(C)C[C@H](O)C1 [antheraxanthin],inactive: 0
15,CC1=C(CCC(=O)O)c2cc3nc(cc4[nH]c(cc5[nH]c(cc1n2)c(C)c5C(C)O)c(C)c4C(C)O)C(C)=C3CCC(=O)O (stereo not given) [haematoporphyrin dihydrochloride],inactive: 0
16,CN(C)CCCN1c2ccccc2Sc2ccc(C(F)(F)F)cc21 [triflupromazine hydrochloride],active: 1
17,O=C1C[C@@H](c2ccccc2)Oc2cc(O)cc(O)c21 [pinocembrin],inactive: 0
18,O=C1c2c(O)cccc2Cc2cccc(O)c21 [anthralin],inactive: 0
19,CC(=O)Oc1ccc2c(c1OC(C)=O)OCC1(O)Cc3c(cc(OC(C)=O)c(OC(C)=O)c3OC(C)=O)C21 (stereo not given) [haematoxylin pentaacetate],inactive: 0
20,C[C@@H]1C[C@H]2[C@@H]3C[C@H](F)C4=CC(=O)C=C[C@]4(C)[C@@]3(F)[C@@H](O)C[C@]2(C)[C@@]1(O)C(=O)CO [flumethasone],inactive: 0
21,CC[C@H](/C=C/[C@@H](C)[C@H]1CC[C@H]2[C@@H]3CC=C4C[C@@H](O)CC[C@]4(C)[C@H]3CC[C@]12C)C(C)C [stigmasterol],inactive: 0
22,CCCCCCCCCCCCCCCCCCOCC(O)CO (stereo not given) [batyl alcohol],inactive: 0

row,SMILES,phenotypic hit
1,COC1=C[C@@H](C)[C@@H]2C[C@H]3OC(=O)C[C@H]4C(C)=C(OC)C(=O)[C@H]([C@@]2(C)C1=O)[C@@]34C [quassin],inactive: 0
2,CCCCCc1c2c(cc(O)c1C(=O)O)OC(=O)c1c(cc(OC)cc1C(=O)CCCC)O2 [lobaric acid],inactive: 0
3,CN1CCN(C2=Nc3ccccc3Oc3ccc(Cl)cc32)CC1 [Loxapine succinate],inactive: 0
4,N=C(NCCCCCCNC(=N)NC(=N)Nc1ccc(Cl)cc1)NC(=N)Nc1ccc(Cl)cc1 [chlorhexidine],inactive: 0
5,COc1c2occc2cc2ccc(=O)oc12 [methoxsalen],inactive: 0
6,COC(=O)c1cc(O)c(=O)c2c(O)c(O)ccc2c1 [methyl 7-deshydroxypyrogallin-4-carboxylate],inactive: 0
7,C[C@H](CCC(=O)O)[C@H]1CC[C@H]2[C@@H]3CC[C@H]4C[C@H](O)CC[C@]4(C)[C@H]3C[C@H](O)[C@]12C [allodeoxycholic acid],inactive: 0
8,CC(=O)S[C@@H]1CC2=CC(=O)CC[C@]2(C)[C@H]2CC[C@@]3(C)[C@@H](CC[C@@]34CCC(=O)O4)[C@H]12 [spironolactone],inactive: 0
9,CC(Cc1cccc(C(F)(F)F)c1)NCCOC(=O)c1ccccc1 (stereo not given) [benfluorex hydrochloride],inactive: 0
10,C=C1CC[C@H](O)C/C1=C/C=C1\CCC[C@]2(C)[C@@H]([C@H](C)CCCC(C)C)CC[C@@H]12 [cholecalciferol],inactive: 0
11,NNCCc1ccccc1 [phenelzine sulfate],inactive: 0
12,CN1CCN(CC/C=C2/c3ccccc3Sc3ccc(S(=O)(=O)N(C)C)cc32)CC1 [thiothixene],active: 1
13,"COc1ccc2c(=O)c(OC)c(-c3ccccc3)oc2c1 [3,7-dimethoxyflavone]",inactive: 0
14,COc1ccc(-c2cc(=O)c3ccccc3o2)cc1 [4'-methoxyflavone],inactive: 0
15,"CC1(C)C(O)CC(O)C2(C)C1CC(=O)C1(C)C2CCC2(C)C(C(=O)O)OC(=O)C3OC321 (stereo not given) [dideacetyl (1,3)-7-desacetoxy-7-oxo-deoxykhivorinic acid]",inactive: 0
16,OC(Cn1cncn1)(Cn1cncn1)c1ccc(F)cc1F [fluconazole],inactive: 0
17,NCCc1c[nH]cn1 [Histamine dihydrochloride],inactive: 0
18,CC[N+](C)(C)c1cccc(O)c1 [edrophonium chloride],inactive: 0
19,CC(=O)[C@@]1(O)CC[C@H]2[C@@H]3C=C(Cl)C4=CC(=O)[C@@H]5C[C@@H]5[C@]4(C)[C@H]3CC[C@@]21C [cyproterone],inactive: 0
20,Nc1[nH]cnc2ncnc1-2 [adenine],inactive: 0
21,Cc1ccc(C(=O)c2ccc(CC(=O)O)n2C)cc1 [tolmetin sodium],inactive: 0
22,COC(=O)Nc1nc2cc(C(=O)c3cccs3)ccc2[nH]1 [nocodazole],inactive: 0

row,SMILES,phenotypic hit
1,CCCCN(CCCC)CCCOC(=O)c1ccc(N)cc1 [butacaine],inactive: 0
2,O=C(O)CN1C(=O)c2cccc3cccc(c23)C1=O [alrestatin],inactive: 0
3,"CC12CCC3C(CC3(C)C)C(C)(CCC1=O)O2 (stereo not given) [3,7-epoxycaryophyllan-6-one]",inactive: 0
4,CC(=O)OCC(=O)[C@@]1(O)CC[C@H]2[C@@H]3CCC4=CC(=O)CC[C@]4(C)[C@@]3(F)[C@@H](O)C[C@@]21C [fludrocortisone acetate],inactive: 0
5,CC(=O)O[C@@H]1C[C@H]2C(C)(C)C(=O)CC[C@]2(C)[C@H]2CC[C@@]3(C)[C@H](c4ccoc4)OC(=O)[C@H]4O[C@]43[C@@]21C [dihydrogedunin],inactive: 0
6,O=C(O)CCCCCCCC(=O)O [azelaic acid],inactive: 0
7,CCCCCCCCCCCCCCCC(=O)OC/C=C(C)/C=C/C=C(C)/C=C/C1=C(C)CCCC1(C)C [retinyl palmitate],inactive: 0
8,COc1ccc(-c2cc(=O)c3c(O)c(OC)c(OC)cc3o2)cc1O [eupatorin],inactive: 0
9,NS(=O)(=O)c1cc(C2(O)NC(=O)c3ccccc32)ccc1Cl (stereo not given) [chlorthalidone],inactive: 0
10,CC(=O)OCC(=O)[C@@]1(O)CC[C@H]2[C@@H]3CCC4=CC(=O)CC[C@]4(C)[C@H]3[C@@H](O)C[C@@]21C [hydrocortisone acetate],inactive: 0
11,CC(C)c1c(C(=O)Nc2ccccc2)c(-c2ccccc2)c(-c2ccc(F)cc2)n1CC[C@@H](O)C[C@@H](O)CC(=O)O [atorvastatin calcium],inactive: 0
12,C=CCc1ccc(O)c(OC)c1 [eugenol],inactive: 0
13,C=CC(N)CCC(=O)O (racemic) [(±)-gamma-Vinyl GABA],inactive: 0
14,CCn1cc(C(=O)O)c(=O)c2cc(F)c(N3CCNCC3)nc21 [enoxacin],inactive: 0
15,CCCc1ncc(C[n+]2ccccc2C)c(N)n1 [amprolium],inactive: 0
16,C=CC(C)(O)CCC=C(C)CCC=C(C)C (mixture of isomers) [nerolidol],inactive: 0
17,O=C(O)CN(CCN(CC(=O)O)CC(=O)O)CC(=O)O.[Na+].[Na+].[Na+] [trisodium ethylenediamine tetracetate],inactive: 0
18,CC(C(=O)O)c1cccc(Oc2ccccc2)c1 (stereo not given) [fenoprofen],inactive: 0
19,CC(=O)N[C@@H](Cc1c[nH]c2ccccc12)C(=O)O [acetyltryptophan],inactive: 0
20,COc1ccccc1-c1coc2cc(O)ccc2c1=O [7-hydroxy-2'-methoxyisoflavone],inactive: 0
21,COC(=O)C[C@H]1C(C)(C)[C@@H](O)[C@@H]2CC3=C4C=C(OC)O[C@@H](c5ccoc5)[C@]4(C)CCC3[C@@]1(C)C2=O (stereo partly drawn) [3-deoxo-3beta-hydroxymexicanolide 16-enol ether],inactive: 0

# From the supplement of paper PMC2702839
